In the supplement of paper PMC10126150:
Sequences with one replicate were seen in a single cluster, so their values are uncertain.

What follows are sequences tested on ATP (assay: switch fluorescence ratio, 500 uM ATP over buffer (Cy3 cluster intensity, sum of 5 cycles each) (fold (ratio)); higher = stronger signal-on switching upon ATP binding; sequences stand for … in TCGTCGGCAGCGTCAGATGTGTATAAGAGACAGTTTTTTTTTTTTTTTTTTTTTTTTT…TC). Settings: aptamer strand: ATP DNA aptamer (quencher-CACCTGGGGGAGTATTGCGGAGGAAGG + anchor), 100 nM annealed; ATP concentration: 500 uM; one replicate.
In short: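 Imaging in selection buffer was followed by imaging after 15 min with 500 uM ATP at 22 °C, for Cy3-labelled switching-strand clusters annealed to 100 nM quencher-labelled ATP aptamer on a modified Illumina MiSeq flow-cell. Five of these buffer/ATP cycles ran, separated by NaOH stripping and re-annealing. The fluorescence ratio per cluster is summed target-cycle over summed buffer-cycle Cy3 intensity, averaged per switch-domain sequence; clusters outside 100-1000 RFU were removed.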
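Also: ATP exposure 15 min at 22 °C before imaging.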

Sequence | switch fluorescence ratio
GTGGCTCCG | 1.07
GTGGCTGTGA | 0.938
GTGGCTTACA | 1.02
GTGGGAAACG | 1.04
GTGGGAAGAT | 0.96
GTGGGAGATT | 1
GTGGGAGCTC | 0.946
GTGGGAGGCA | 1.04
GTGGGATA | 0.99
GTGGGCAAGG | 0.982
GTGGGCAATT | 1.06
GTGGGCG | 1.06
GTGGGGCCGG | 0.991
GTGGGGTTG | 0.964
GTGGGTAGCT | 1.01
GTGGGTAGTC | 1.09
GTGGGTCCAA | 0.986
GTGGTAATTT | 0.981
GTGGTAGTGT | 1.01
GTGGTATGAC | 1.03
GTGGTCAGCC | 0.989
GTGGTCCTCG | 1.01
GTGGTCTGGC | 1.05
GTGGTGAGAG | 1.02
GTGGTGCGCA | 1.02

Sequence | switch fluorescence ratio
GTGGTGGATT | 0.968
GTGGTTGCTA | 0.967
GTGGTTTCGC | 1.04
GTGGTTTTCC | 0.985
GTGTAAACCG | 1.05
GTGTAAGGC | 1.09
GTGTAATCTG | 0.968
GTGTAATTTA | 1.01
GTGTACCGTT | 0.982
GTGTAGGGGG | 0.987
GTGTATATAA | 0.942
GTGTATGGAA | 1.06
GTGTATGGGC | 1.04
GTGTCAATCT | 1.02
GTGTCCAGGG | 1.15
GTGTCGGGTA | 0.981
GTGTCTCGA | 1.02
GTGTGAGACT | 1.08
GTGTGAGCGA | 0.974
GTGTGATAAA | 1.02
GTGTGCATTA | 0.978
GTGTGGACGG | 1
GTGTGGGTGC | 1.04
GTGTGTAACA | 0.966
GTGTGTGCGC | 0.99

Sequence | switch fluorescence ratio
GTGTTAAAGA | 1.01
GTGTTAAGCC | 1.01
GTGTTACAGC | 0.966
GTGTTATGTA | 0.992
GTGTTATTCA | 1.03
GTGTTCTGAC | 1.01
GTGTTGAAGA | 0.954
GTGTTGCG | 1.12
GTGTTTAGGC | 0.905
GTGTTTCCGA | 1.04
GTGTTTGTGC | 1.04
GTGTTTTCAT | 0.97
GTTAAACAAA | 1.04
GTTAAAGGCG | 1.04
GTTAAATACG | 1.59
GTTAAGAAGA | 1.01
GTTAAGAGCT | 1.01
GTTAAGGAAG | 0.99
GTTAAGGTAG | 0.987
GTTAATAGCG | 0.987
GTTAATATCT | 1.01
GTTAATTCGT | 1
GTTACAATAG | 1.05
GTTACACGAC | 1.13
GTTACCAGAT | 1.03

Sequence | switch fluorescence ratio
GTTACCATTG | 1.03
GTTACTTCGC | 1.59
GTTAGAAAAG | 0.992
GTTAGCGGGA | 1.01
GTTAGTCCAC | 0.956
GTTAGTGGCC | 1.02
GTTAGTGGGT | 0.984
GTTATACTAG | 1.02
GTTATAGCAA | 1.21
GTTATATTA | 1.03
GTTATCACGG | 0.997
GTTATCATAG | 1.02
GTTATCGACC | 1.02
GTTATCTGGA | 0.906
GTTATGAAGC | 1.07
GTTATGCAAT | 1.11
GTTATGTCTC | 1.02
GTTATTACCG | 0.958
GTTATTCCTC | 1.09
GTTATTCGTA | 0.959
GTTATTTTGG | 1.02
GTTCAAGGAG | 1
GTTCAGGACC | 0.985
GTTCATTACG | 0.994
GTTCCGTCGA | 1.03
